Source: patent US12371675B2, “Process and microorganism for synthesis of adipic acid from carboxylic acids” (THE GOVERNING COUNCIL OF THE UNIVERSITY OF TORONTO, priority 2015, dated 2025)

Target: Mycobacterium abscessus carboxylate reductase MAB_4714c, SEQ ID NO: 36 (Mycobacteroides abscessus, UniProt B1MLD7)
Test: CAR kinetics, ATP/NADPH dependent carboxylic acid reduction

Row | Structure (SMILES) | kcat/Km [M⁻¹ s⁻¹]
1 | O=C(O)CCCO [4-hydroxybutyric acid] | 70.81 ± 1.96
2 | O=C(O)CCCCC(=O)O [adipic acid] | 89.55 ± 3.07
